Reference: article PMC9334274, “A unique class of Zn^2+-binding serine-based PBPs underlies cephalosporin resistance and sporogenesis in Clostridioides difficile” (Nature Communications, 2022)

Tested on: C. difficile strain R20291
Experiment: Minimum inhibitory concentration (MIC) determination
Conditions: for MIC (X): C. difficile R20291, source data Fig. S3, unit not given

SMILES | MIC (X) | MIC (C. difficile R20291, BHI, 37 °C, 24 h, mean of three biological replicates)
CO/N=C(\C(=O)N[C@@H]1C(=O)N2C(C(=O)O)=C(/C=C\c3scnc3C)CS[C@H]12)c1csc(N)n1 [cefditoren] | 16 | –
Nc1nc(/C(=N/O)C(=O)N[C@@H]2C(=O)N3C(C(=O)O)=C(/C=C4\CCN([C@@H]5CCNC5)C4=O)CS[C@H]23)ns1 [ceftobiprole] | 2 | 2 µg/mL (≈ 3.74 µM)

In brackets after ≈: the same amount, converted by molar mass.
